# From PMC4336329 (PLoS ONE, 2015)
# Out of some 310,000 compounds screened, about 2,200 (0.71%) showed an effect of 50% or more. Effects have a minus sign here. Some of the results follow.
# Molecular target: human ether-à-go-go-related gene (hERG) potassium channel (human, UniProt Q12809)
# Test: primary screen, population patch clamp on CHO cells stably expressing hERG
# Sequence of human ether-à-go-go-related gene (hERG) potassium channel (Q12809 whole entry, looked up): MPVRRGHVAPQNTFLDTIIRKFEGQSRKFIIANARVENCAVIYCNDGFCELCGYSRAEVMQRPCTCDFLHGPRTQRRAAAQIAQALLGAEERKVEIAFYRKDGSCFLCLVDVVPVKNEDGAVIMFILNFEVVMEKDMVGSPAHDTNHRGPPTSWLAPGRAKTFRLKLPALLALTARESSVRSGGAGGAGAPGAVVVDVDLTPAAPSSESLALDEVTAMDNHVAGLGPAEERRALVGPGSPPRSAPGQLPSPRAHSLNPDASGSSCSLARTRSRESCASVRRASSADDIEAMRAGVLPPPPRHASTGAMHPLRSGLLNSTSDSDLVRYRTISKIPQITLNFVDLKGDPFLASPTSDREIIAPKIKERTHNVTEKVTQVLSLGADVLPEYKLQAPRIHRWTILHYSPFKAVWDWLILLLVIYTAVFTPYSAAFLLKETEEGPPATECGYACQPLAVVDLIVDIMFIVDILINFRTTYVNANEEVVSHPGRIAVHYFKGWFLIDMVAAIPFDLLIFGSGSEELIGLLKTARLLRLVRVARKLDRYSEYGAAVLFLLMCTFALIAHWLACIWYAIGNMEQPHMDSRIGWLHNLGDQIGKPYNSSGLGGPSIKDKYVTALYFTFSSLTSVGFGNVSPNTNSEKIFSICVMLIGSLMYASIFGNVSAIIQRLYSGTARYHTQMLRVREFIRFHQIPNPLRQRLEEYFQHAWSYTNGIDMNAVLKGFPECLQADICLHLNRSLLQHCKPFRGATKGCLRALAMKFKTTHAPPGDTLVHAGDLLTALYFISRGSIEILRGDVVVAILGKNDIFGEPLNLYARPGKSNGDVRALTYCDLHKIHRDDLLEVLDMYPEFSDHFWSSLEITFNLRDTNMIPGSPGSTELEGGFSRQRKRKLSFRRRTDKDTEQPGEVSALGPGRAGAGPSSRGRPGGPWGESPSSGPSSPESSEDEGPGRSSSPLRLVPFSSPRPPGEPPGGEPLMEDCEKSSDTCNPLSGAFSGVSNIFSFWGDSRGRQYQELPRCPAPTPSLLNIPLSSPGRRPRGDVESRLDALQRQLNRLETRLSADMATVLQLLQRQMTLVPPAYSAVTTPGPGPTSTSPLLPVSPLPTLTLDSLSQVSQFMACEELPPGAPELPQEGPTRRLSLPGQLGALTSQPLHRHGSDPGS
row,Compound,"hERG current change (%, negative = inhibition) at 1uM"
1,OC[C@@H](O)[C@@H](O[C@H]1O[C@H](CO)[C@@H](O)[C@H](O)[C@H]1O)[C@H](O)[C@@H](O)CO,15.3%
2,Cn1c(CC(=O)NNC(=O)c2ccccc2[N+](=O)[O-])nc2ccccc21,14.1%
3,CCN1C(=NCC2CC2)N[C@@H](c2cccc(C(F)(F)F)c2)C(C(=O)OC)=C1C,2.22%
4,c1ccc(-c2nc(N3CCCCCC3)c3ccccc3n2)nc1,-82.3%
5,CCOC(=O)C1=C(COC(=O)CCOc2ccccc2)NC(=O)NC1C (stereo not drawn),-0.625%
6,COc1ccc(-n2cnnc2SCC(=O)NC2CCCc3ccccc32)cc1 (stereo not drawn),8.08%
7,CC(=O)Nc1cn(-c2ccccc2)nc1-c1ccccc1,-0.912%
8,O=C(Nc1nc2cc(Cl)ccc2s1)C1CCCN(S(=O)(=O)c2cccc3cccnc23)C1 (stereo not drawn),11%
9,COC(=O)c1ccc(C2SCC(=O)N2Cc2ccccc2)cc1 (stereo not drawn),5.33%
10,CC(C)(C)c1ccc(/C=C/C(=O)NC2=NCCS2)cc1,10.4%
11,CCOc1ccc2nc(NC(=O)CN3CCOCC3)sc2c1,-21.6%
12,CCN(CC)S(=O)(=O)c1cccc(C(=O)Nc2ccccc2C(=O)N2CCOCC2)c1,7.74%
13,Cn1c(SCC(=O)NC2CC2)nnc1-c1cccs1,-7.05%
14,CC(C)(C)n1nc2c(c1NC(=O)Cc1ccc(Cl)cc1)CS(=O)(=O)C2,0.177%
15,N/C(=N\N=C\c1cccs1)SC1CC(=O)N(c2ccc(Br)cc2)C1=O (stereo not drawn),12.5%
16,CCCOC(=O)c1ccc(NC(=O)COC)cc1,4.75%
17,COc1ccc(OC)c(NC(=O)Cn2cc(C#N)c3cc(Br)ccc32)c1,1.87%
18,CCOc1ccc(-c2nc(CSCC(=O)NCCCN3CCCC3=O)c(C)o2)cc1,27.3%
19,CCCC(=O)Nc1nc(C)c(-c2csc(Nc3ccc(Cl)cc3)n2)s1,10.5%
20,O=C(c1cccc(S(=O)(=O)N2CCOCC2)c1)N1CCCC1,-7.69%
21,CN(C)S(=O)(=O)c1ccc(C(=O)NNC(=O)c2ccccc2-n2cccc2)cc1,1.65%

row,Compound,"hERG current change (%, negative = inhibition) at 1uM"
1,COc1ccc(/C=C2\SC(c3ccc(C)cc3)=NC2=O)cc1OC,11%
2,COC(=O)c1cnc2c(c1C(=O)OC)c(=O)n(C)c(=O)n2C,4.97%
3,O=C1CCCN2N=C(SCC(=O)Nc3ccccc3C(F)(F)F)SC2=N1,15.6%
4,O=C(c1ccc(F)cc1)N(Cc1ccco1)C1CCS(=O)(=O)C1 (stereo not drawn),15.7%
5,COc1ccc(/C=N/n2c(C)nc3c([nH]c4ccccc43)c2=O)cc1CN1CCCC(C)(C)C1,-11.5%
6,O=C(O)c1cc(-c2ccc(N3CCOCC3)cc2)nn1-c1ccccc1Cl,30.1%
7,CCN1CCN(c2ccc(NC(=O)c3ccc4c(c3)OCO4)cc2)CC1,-16.7%
8,Cc1cc2oc(C(=O)Nc3ccc(S(=O)(=O)Nc4ncccn4)cc3)c(C)c2cc1Cl,14.6%
9,Cc1ccc(S(=O)(=O)N2CCOCC2)cc1C(=O)N1CCN(S(=O)(=O)c2cccs2)CC1,1.82%
10,CC(C)(C)C(=O)Nc1ccc2c(c1)OCCOCCOc1cc(NC(=O)C(C)(C)C)ccc1OCCOCCO2,-36%
11,COc1ccc(C(=O)O/N=C(\N)c2ccccn2)cc1[N+](=O)[O-],13.5%
12,Nc1ccc(S(=O)(=O)N2CCCCC2c2cccnc2)cc1 (stereo not drawn),8.58%
13,Oc1ccc(/C=N/Nc2cc(N3CCCC3)nc(N3CCCC3)n2)cc1,8.4%
14,Cc1cccc(N2CCN(S(=O)(=O)c3ccc4c(c3)C(C)(C)C(=O)N4C)CC2)c1C,12.4%
15,O=C1COc2ccc(C(=O)CSc3nnnn3-c3ccccc3)cc2N1,3.64%
16,CCn1cc(C(=O)O)c(=O)c2cnc(N3CCN(C(=S)NC(=O)c4ccc(Br)cc4)CC3)nc21,9.51%
17,CCOc1ccc(CNC(=O)c2cc3oc4ccccc4c3n2C)cc1,12.1%
18,COc1ccc(CC(=O)Nc2c3c(nn2-c2cccc(C)c2C)CS(=O)(=O)C3)cc1,-11.4%
19,COc1ccccc1N(C1=NCCCS1)S(=O)(=O)c1ccc(C(C)(C)C)cc1,1.17%
20,COc1ccc(-c2ccc(NCCN3CCOCC3)nn2)cc1OC,15.1%
21,CCCC(C(=O)NC1CCCCC1)N(CC1CCCO1)C(=O)CNS(=O)(=O)c1ccc(F)cc1 (stereo not drawn),-5.69%

row,Compound,"hERG current change (%, negative = inhibition) at 1uM"
1,Cc1nc(-c2ccc([N+](=O)[O-])cc2)sc1C(=O)O,13.4%
2,CCOc1ccc(OCCC(=O)NNC(=O)c2ccncc2)cc1,7.45%
3,CSc1ncc(Cl)c(C(=O)Nc2c(C)cccc2C)n1,19.8%
4,O=C(O)c1ccc2noc(-c3ccccc3)c2c1,11.4%
5,COc1ccc(-c2cc(C(=O)N3CCCCCC3)c3ccccc3n2)c(OC)c1,9.28%
6,Cc1ccc(C(=O)Nc2nccc(C)n2)cc1,14.6%
7,CCOC(=O)/C=C/C(=O)Nc1ccc(S(=O)(=O)Nc2c(C)cc(C)cc2C)cc1,2.44%
8,O=C(Nc1cccc(NC(=O)c2ccccc2[N+](=O)[O-])n1)c1ccccc1[N+](=O)[O-],7.78%
9,Cc1nnc(C)n1/N=C/c1cccn1C,8.5%
10,CC(C)C1=NOC(C(=O)N2CCC(N3CCC(C(=O)N4CCOCC4)CC3)CC2)C1 (stereo not drawn),11.4%
11,Cc1ccc(S(=O)(=O)n2nc(OC(=O)c3c(F)cccc3Cl)cc2N)cc1,-8.27%
12,COc1cccc(-c2cc(C(=O)Nc3c(C)nn(Cc4ccccc4)c3C)no2)c1,9.56%
13,COc1ccc(N2CC(C(=O)N[C@@H](C)C(=O)NCc3ccccc3OC)CC2=O)cc1 (stereo partly drawn),9.6%
14,O=C(NCC1CCCO1)c1ccc(Oc2ccc([N+](=O)[O-])cc2)cc1 (stereo not drawn),-12.3%
15,NC(=O)c1nsc(C(=O)N(c2ccccc2)C(C(=O)NCc2ccc(F)cc2)c2ccc(O)cc2)c1N (stereo not drawn),8.1%
16,O=C(NCc1ccco1)/C(=C\c1ccco1)NC(=O)c1ccco1,11%
17,Cc1ccc2nc3c(cc2c1)c(C)nn3-c1ccccc1,15.1%
18,CCOc1ccc(-c2c(=O)n(OCc3ccc([N+](=O)[O-])cc3)c3ccccc3[n+]2[O-])cc1,-2.14%
19,CNC(=O)COc1coc(CN2CCN(c3ccccc3OC)CC2)cc1=O,14.7%
20,CCN(Cc1ccccc1)C(=O)Cn1c(=O)n(CC(=O)N2CCCCC2)c(=O)c2sccc21,13.9%
21,Fc1cc2[nH]cnc2cc1Cl,7.87%

row,Compound,"hERG current change (%, negative = inhibition) at 1uM"
1,N#CC1=C(N)Nc2ncnn2C1c1ccccc1 (stereo not drawn),14.6%
2,O=C(Nc1cc(Cl)ccc1N1CCOCC1)c1cnccn1,9.8%
3,Cc1ccc(Br)cc1S(=O)(=O)N1CCN(c2ccccc2)CC1,4.81%
4,Cc1ccccc1CC(=O)NC1CCCc2ccccc21 (stereo not drawn),18.5%
5,CN(C)c1ccc(/C=N/NC(=O)c2ccnn2C)cc1,6.56%
6,CCN(C1CCS(=O)(=O)C1)S(=O)(=O)c1ccc(OC)c(OC)c1 (stereo not drawn),-1.14%
7,Cc1cnc(NC(=O)c2cc3c(C)nn(-c4ccccc4)c3s2)s1,10.4%
8,Fc1ccc(CSc2nnc3ccccn23)c(Cl)c1,13.1%
9,CCn1nc(C(=O)N[C@@H](CCSC)c2nc3ccccc3[nH]2)c2ccccc2c1=O,-4.1%
10,COCCn1c(SCC(=O)Nc2ccc(OC)c(S(N)(=O)=O)c2)nc2ccccc21,12%
11,CN1CCN(C(=S)c2ccc(OCC(=O)Nc3cccc(C(F)(F)F)c3)cc2)CC1,14.5%
12,Cc1cc2c(C)nc(N/N=C/c3ccc([N+](=O)[O-])cc3)nc2o1,-2.5%
13,Cc1ccccc1-n1cc(CNCc2c(C(=O)N(C)C)nc3ccc(Cl)cn23)cn1,4.77%
14,CN(Cc1nccn1C)C(=O)C1CCC(=O)N(Cc2cccc(C(F)(F)F)c2)C1 (stereo not drawn),8.08%
15,C=CCNC(=O)/C(=C\c1ccc(OC)cc1)NC(=O)c1ccc([N+](=O)[O-])cc1,-64.7%
16,CCOc1ccccc1-n1nnnc1SCC(=O)Nc1cc(C)on1,-5.24%
17,CN(CC(=O)Nc1c(Cl)cccc1Cl)C(=O)CCNS(=O)(=O)c1ccccc1C(F)(F)F,12.1%
18,CC1(C2CC2)NC(=O)N(CC(=O)Nc2cc(S(=O)(=O)N3CCCCC3)ccc2Cl)C1=O (stereo not drawn),7.33%
19,COc1ccc(NC(=O)COc2coc(CN3c4ccccc4CC3C)cc2=O)cc1 (stereo not drawn),3.07%
20,COc1ccc(CCNC(=O)COC(=O)c2cc(S(=O)(=O)NCc3ccccc3)ccc2O)cc1OC,-1.16%
21,O=C(NCc1nnc(SCc2ccccc2)n1-c1ccccc1)C12CC3CC(CC(C3)C1)C2,14.1%
